The text below walks through data of US8410178B2, “CIS 3,4-dihydroxy-2-(3-methylbutanoyl)-5-(3-methylbutyl)-4-(4-methylpentanoyl)cyclopent-2-en-1-derivatives, substantially enantiomerically pure compositions and methods” (KinDex Therapeutics, LLC, priority 2010, dated 2013).

For the test, the target named is voltage-gated sodium channel type II (SCN2A) (Rattus norvegicus, UniProt P04775). Conditions: binding target SCN2A; competitor ligand Veratridine.

For the compound `CC(C)CCC(=O)[C@@]1(O)C(O)=C(C(=O)CC(C)C)C(=O)[C@@H]1CCC(C)C.[K]` [(+)-KDT501, (+)-(4S,5R)-3,4-dihydroxy-2-(3-methylbutanoyl)-5-(3-methylbutyl)-4-(4-methylpentanoyl)cyclopent-2-en-1-one potassium salt], the nH came to 1.7.
For the compound `CC(C)CCC(=O)[C@]1(O)C(O)=C(C(=O)CC(C)C)C(=O)[C@H]1CCC(C)C` [(−)-KDT501], the nH was determined as 0.7.
